In the assay the test system is NCI-H322M lung. The experiment in a line: NCI-60 cell line screen, 48 h.

Structures are written as SMILES.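 Tested at 5 concentrations; 48 h exposure; 96-well plates; endpoints linearly interpolated, else capped at highest concentration. Abbreviation: GI50, concentration required for 50% inhibition of growth. TGI: concentration producing complete growth inhibition.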

Consider `O=C(Nc1ccc(Cl)c([N+](=O)[O-])c1)Nc1ccc(Cl)c([N+](=O)[O-])c1`, for which the GI50 is 11.7 µM and the TGI is 24.2 µM.
In the same order, the values of `O=C1NC(=NC23CC4CC(CC(C4)C2)C3)N/C1=C\c1ccc2ncoc2c1` are 0.309 µM and 18.6 µM.
In the same order, the values of `Cn1nc(C(F)(F)F)cc1-c1cc(Cl)c(COc2ccc(Cl)cc2)c(-c2ccc(Cl)c(C(F)(F)F)c2)c1O` are 2.88 µM and 10.9 µM.

For the origin of these results see PubChem BioAssay (NCI).
